Reference: PubChem BioAssay AID445 (National Center for Advancing Translational Sciences (NCATS), 2006)
Among all 110,000 compounds or so, about 40 (0.04%) were called active. Inconclusive means that the source gave no clear call. Such entries were picked first, then a sample of the others. Calls come from the whole dose curve; as a rule, active = well fitted curve in the direction sought with a large enough effect in the signal ratio (not every such curve was filed as active); inconclusive = small, poorly fitted or top-dose-only effect, or a change in a side signal; inactive = flat fitted curve, though single readings scatter; the % refers to the signal ratio. Where the call is inconclusive, the potency comes from a doubtful curve fit.

Test: IkB Signaling
Details: ABC-DLBCL IkBa-CBG/CBR dual luciferase ratio (green luciferase fused to IkBa over red control in OCI-Ly3 lymphoma cells), 4 h; IkBa stabilization activation: at 57.1 µM (top of the series), scaled: untreated 0%, proteasome inhibitor 100% unless noted
Method in brief: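 Curves were fitted separately to fusion (green), unfused (red) and ratio luminescence, then classed by r2, magnitude and activity. Cells: OCI-Ly3, 4 h compound plus doxycycline at 37C; 10 uM MG-132 defined full response.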
Potency is the fitted concentration of half-maximal effect.

Row | Compound | IkBa stabilization activation | Potency
1 | Cc1cccc2cc(CN(Cc3nnnn3Cc3ccco3)C3CCCC3)c3nnnn3c12 | inconclusive: 2.21% [signal inhibitor] | –
2 | CCc1ccc(-n2nnc(-c3nc(-c4ccccc4)no3)c2C)cc1 | – | inconclusive: 12.6 µM [signal inhibitor]
3 | CCOc1ccccc1-c1nc(-c2ccc(-c3ccccc3)nc2OCC)no1 | inconclusive: 6.59% [signal inhibitor] | –
4 | COc1ccccc1NC(=O)CSc1nnc(-c2cccc(Cl)c2)o1 | inconclusive: 9.31% [signal inhibitor] | –
5 | COc1ccccc1Nc1c2c(nc3ccc(NC(=O)/C=C/c4cccc(OC)c4OC)cc13)CCCC2 | inconclusive: 4.41% [signal inhibitor] | –
6 | COc1ccc2nc(N(Cc3cccnc3)C(=O)CCc3ccccc3)sc2c1 | inconclusive: 4.46% [signal inhibitor] | –
7 | CCCCC12CN3CC(C)(CN(C1)C3c1cc(Br)ccc1O)C2=O (centres undefined) | inconclusive: -0.1% [signal inhibitor] | –
8 | COc1ccc(OCc2nn3c(-c4ccccn4)nnc3s2)cc1 | inactive | –
9 | CC(=O)c1cc(-c2ccc(F)cc2)n(CCC(=O)NCc2ccccc2C)c1C | inconclusive: 0.16% [signal inhibitor] | –
10 | COc1ccccc1NC(=O)C1CCCN(c2nnc(C)c3c(C)n(-c4ccccc4)nc23)C1 (centres undefined) | inconclusive: -0.508% [signal inhibitor] | –
11 | Cc1ccc(N2CCN(c3nc4ccc(C)cc4n4nnnc34)CC2)c(C)c1 | inconclusive: 1.09% [signal inhibitor] | –
12 | Cc1ccc(NC2=C(c3ccc(C(F)(F)F)cc3)C(=O)c3ccccc32)cc1F | inactive | –
13 | CCCN(CCC)C(=O)Cn1c(=O)n(-c2cccc(C(F)(F)F)c2)c(=O)c2c(C)c(C)sc21 | inconclusive: 1.31% [signal inhibitor] | –
14 | CCOC(=O)c1sc(NC(=O)c2c(C)nn(Cc3ccccc3)c2C)cc1C | inconclusive: 1.69% [signal inhibitor] | –
15 | CCOc1cc(C(=O)Nc2ccc(-c3nc4cc(C)ccc4o3)cc2)cc(OCC)c1OCC | inconclusive: -0.646% [signal inhibitor] | –
16 | COc1cc2c(-c3ccccc3C)nc3c(c(C)nn3-c3ccccc3)c2cc1OC | inactive | –
17 | O=C1[C@@H]2CSC(c3ccc(F)cc3)N2C(=O)N1c1ccc(Cl)cc1 (some centres undefined) | inconclusive: 1.05% [signal inhibitor] | –
18 | CCc1ccc(-n2c(=O)c3c4c(sc3n(Cc3ccc(F)cc3)c2=O)CCCC4)cc1 | inactive | –
19 | Cc1cccc(OCc2nnc(SCc3cc(=O)n4cc(Br)ccc4n3)o2)c1 | inconclusive: -0.403% [signal inhibitor] | –
